Measurements as given in publication PMC6797615, “Hydrogen Sulfide From Cysteine Desulfurase, Not 3-Mercaptopyruvate Sulfurtransferase, Contributes to Sustaining Cell Growth and Bioenergetics in E. coli Under Anaerobic Conditions” (Frontiers in Microbiology, 2019).

Substrate: N[C@@H](CS)C(=O)O
Assay: purified protein
Type: biochemical, Escherichia coli
Details: pH 8.0, 1 mM DTT, 37 °C, 50 mM Tris, 0.4 mM Pb(NO3)2

B1: IscS (cysteine desulfurase) (Escherichia coli K-12) (protein)
chain: MKLPIYLDYSATTPVDPRVAEKMMQFMTMDGTFGNPASRSHRFGWQAEEAVDIARNQIADLVGADPREIVFTSGATESDNLAIKGAANFYQKKGKHIITSKTEHKAVLDTCRQLEREGFEVTYLAPQRNGIIDLKELEAAMRDDTILVSIMHVNNEIGVVQDIAAIGEMCRARGIIYHVDATQSVGKLPIDLSQLKVDLMSFSGHKIYGPKGIGALYVRRKPRVRIEAQMHGGGHERGMRSGTLPVHQIVGMGEAYRIAKEEMATEMERLRGLRNRLWNGIKDIEEVYLNGDLEHGAPNILNVSFNYVEGESLIMALKDLAVSSGSACTSASLEPSYVLRALGLNDELAHSSIRFSLGRFTTEEEIDYTIELVRKSIGRLRDLSPLWEMYKQGVDLNSIEWAHH
notes: iscS gene in pET-28a (BamHI/XhoI), expressed in E. coli BL21(DE3) pLysS, HisTrap purified; tag removal not mentioned; PLP enzyme
In the case of B1, the Km is reported as 800 ± 50 µM.
